# Data published in PMC4336329 (PLoS ONE, 2015).
# The whole screen tested about 310,000 compounds, of which about 2,200 (0.71%) showed an effect of 50% or more. The effect is printed as a negative number. Some of the results follow.
# Molecular target: human ether-à-go-go-related gene (hERG) potassium channel (human, UniProt Q12809)
# Assay: primary screen, population patch clamp on CHO cells stably expressing hERG
# Chain of human ether-à-go-go-related gene (hERG) potassium channel (Q12809 whole entry, looked up): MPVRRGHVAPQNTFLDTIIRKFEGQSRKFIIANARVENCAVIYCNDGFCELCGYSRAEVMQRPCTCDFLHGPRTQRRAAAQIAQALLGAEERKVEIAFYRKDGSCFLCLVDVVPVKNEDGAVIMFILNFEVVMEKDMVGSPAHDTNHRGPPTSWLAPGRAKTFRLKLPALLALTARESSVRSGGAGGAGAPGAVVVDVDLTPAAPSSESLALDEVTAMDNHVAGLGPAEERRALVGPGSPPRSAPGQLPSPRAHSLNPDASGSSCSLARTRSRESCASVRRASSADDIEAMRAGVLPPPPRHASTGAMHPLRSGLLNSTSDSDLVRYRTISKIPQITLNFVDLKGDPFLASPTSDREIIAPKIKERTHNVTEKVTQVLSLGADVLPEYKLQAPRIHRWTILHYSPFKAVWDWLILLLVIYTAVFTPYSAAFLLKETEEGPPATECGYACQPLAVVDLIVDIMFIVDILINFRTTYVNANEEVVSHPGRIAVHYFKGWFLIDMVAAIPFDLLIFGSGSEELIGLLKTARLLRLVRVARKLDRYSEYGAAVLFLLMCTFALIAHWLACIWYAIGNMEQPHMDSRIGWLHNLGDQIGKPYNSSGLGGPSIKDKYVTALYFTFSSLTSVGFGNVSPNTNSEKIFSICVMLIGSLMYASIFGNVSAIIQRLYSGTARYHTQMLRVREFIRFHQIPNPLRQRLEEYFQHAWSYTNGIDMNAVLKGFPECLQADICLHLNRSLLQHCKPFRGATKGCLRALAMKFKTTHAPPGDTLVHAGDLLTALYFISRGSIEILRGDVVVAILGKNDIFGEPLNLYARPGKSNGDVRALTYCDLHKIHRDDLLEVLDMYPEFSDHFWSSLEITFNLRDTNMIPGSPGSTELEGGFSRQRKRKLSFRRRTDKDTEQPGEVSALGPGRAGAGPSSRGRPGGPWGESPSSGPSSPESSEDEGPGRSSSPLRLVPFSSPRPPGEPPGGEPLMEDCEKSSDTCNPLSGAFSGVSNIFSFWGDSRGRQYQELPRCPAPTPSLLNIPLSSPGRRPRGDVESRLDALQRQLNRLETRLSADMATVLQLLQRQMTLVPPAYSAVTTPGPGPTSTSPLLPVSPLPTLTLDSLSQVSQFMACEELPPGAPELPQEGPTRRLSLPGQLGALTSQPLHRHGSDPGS
row,SMILES,"hERG current change (%, negative = inhibition) at 1uM"
1,CCCCC(=O)Nc1nnc(-c2ccco2)o1,6.67%
2,CCNC(=O)N1CCCC(C(=O)c2ccc(OC)c(OC)c2)C1 (centres unmarked),15.7%
3,COc1ccc(S(=O)(=O)N2CCC(N3CCN(c4ccccc4)CC3)CC2)cc1,-1.3%
4,CCOC(=O)CN1CCS(=O)(=O)CC1,12.6%
5,N#CCC(=O)Nc1ccc(C(=O)OCC(=O)Nc2ccccc2-c2ccccc2)cc1,11.8%
6,O=C(O)/C=C/C(=O)Nc1ccc(C(=O)c2ccccc2)cc1,12.8%
7,O=S(=O)(Nc1ccccc1N1CCOCC1)c1ccc(Cl)s1,-2.7%
8,Cc1ccccc1N(CC(=O)NC1CCCC1)C(=O)c1csnn1,6.41%
9,CN(C(=O)CN1C(=O)S/C(=C\c2ccccc2F)C1=O)C1CCS(=O)(=O)C1 (centres unmarked),12.8%
10,CS(=O)(=O)Nc1ccccc1C(=O)Nc1cccc(Cl)c1,2.66%
11,Nc1ncn(C23CC4CC(CC(C4)C2)C3)n1,-1.63%
12,Cc1nn(C(C)C(=O)NCC2CCCO2)c(C)c1[N+](=O)[O-] (centres unmarked),4.46%
13,COc1ccc(NC(=O)C2=CC(c3ccco3)=NS(=O)(=O)N2C)cc1OC,3.3%
14,CCN(C(=O)CCS(=O)(=O)c1cc2c(cc1Cl)NC(=O)CO2)c1ccccc1,-3.44%
15,COc1ccc(NC(=O)C2CCOC2=O)cc1 (centres unmarked),6.06%
16,Nc1nc(Cl)cc(N2CCC(c3cc(-c4ccc(Cl)cc4Cl)n[nH]3)CC2)n1,18.3%
17,O=C(COC(=O)CCc1ccc(S(=O)(=O)N2CCOCC2)cc1)Nc1cccc(Cl)c1,5.62%
18,O=C(O)C(=O)O.OCCN1CCN(C(=S)Nc2cccc(C(F)(F)F)c2)CC1,12.7%
19,Cc1cc(C(=O)N/N=C/c2ccccc2)c(C)o1,10.4%

row,SMILES,"hERG current change (%, negative = inhibition) at 1uM"
1,CCCC/C(O)=C1\C(=O)CC(C)(C)CC1=Nc1ccc(N)cc1,9.76%
2,CCCCC(CC)C(=O)N1CCN(C(=O)c2ccco2)CC1 (centres unmarked),7.71%
3,Cc1cc(C(=O)COC(=O)c2ccc(F)cc2F)c(C)n1C1CC1,4.3%
4,COC(=O)CSc1nc(N)c2c3c(sc2n1)C(c1ccccc1)SC(c1ccccc1)C3 (centres unmarked),26.5%
5,COc1cc(/C=N/NC(=O)CSc2cc(C)c(Br)cc2C)ccc1O,8.67%
6,CC1(C)CC(NC(=O)c2cccc(S(=O)(=O)N(Cc3ccccc3)c3ccccc3)c2)CC(C)(C)N1,-3.29%
7,NS(=O)(=O)c1ccc(NC(=O)COc2ncnc3c2cnn3-c2ccccc2)cc1,8.97%
8,CCO[C@H]1OC(C(=O)N2CCN(Cc3ccccc3)CC2)=C[C@@H](c2ccccc2)[C@@H]1CCCO,9.1%
9,COn1c(SCc2ccc(C)cc2C)nc2ccccc2c1=O,4.18%
10,COCc1cc(C)nc(SCc2ccccc2Cl)c1C#N,14.8%
11,O=C(O)c1cccc(Nc2nc3ccccc3nc2NS(=O)(=O)c2cccs2)c1,12.2%
12,COc1ccc(OCC(=O)N/N=C/C(C)=C/c2ccco2)c(Br)c1,12.2%
13,C/C(=N\NC(=O)C1(C)NC(C)(C)Cc2ccccc21)c1ccccc1 (centres unmarked),14.7%
14,O=C(CCCN1C(=O)/C(=C/c2ccccc2Cl)SC1=S)N1CCCC1,10.8%
15,COc1ccc(C(=O)CSc2nc3[nH]ncc3c(=O)[nH]2)cc1,-0.714%
16,Cc1ccc(NC(=O)c2nc[nH]c2C(=O)N2CCc3ccccc3C2)cc1,18.7%
17,O=c1c2ccccc2nc(SCc2nnc(-c3ccccc3Br)o2)n1Cc1ccco1,10%
18,Cc1nc2nc(COc3ccccc3)nn2c(C)c1Cl,9.03%
19,COc1ccc(S(=O)(=O)Nc2ccccc2C(=O)N2CCCC2)cc1C,10.7%

row,SMILES,"hERG current change (%, negative = inhibition) at 1uM"
1,CC(C)(C)NC(=S)Nc1ccc(Nc2ccccc2)cc1,9.7%
2,O=[N+]([O-])c1cc(-c2nc(-c3ccncc3)no2)cc([N+](=O)[O-])c1,-9.58%
3,O=C(NCC1CCCO1)c1nc(Cn2ccc([N+](=O)[O-])n2)no1 (centres unmarked),7.64%
4,C=CCn1c(NC(=O)CC)c(C(=O)OCC)sc1=S,8.74%
5,C/C(=N\NC(=O)c1ccccc1C)c1cccnc1,10.9%
6,COc1ccc(C(C(=O)NC2CCCCC2)N(Cc2cccnc2)C(=O)c2snc(C(N)=O)c2N)cc1 (centres unmarked),5.42%
7,CCOC(=O)C(C#N)(Cc1cc(OC)cc(OC)c1)Cc1cc(OC)cc(OC)c1,4.24%
8,COc1ccc(-c2nnn(CC(=O)N(Cc3ccco3)C(C(=O)NCC3CCCO3)c3ccco3)n2)cc1 (centres unmarked),6.19%
9,CCOC(=O)c1ccc(NC(=O)c2nc[nH]c2C(=O)N2CCC(C)CC2)cc1,13.1%
10,CC(=O)c1cccc(CN2CCC(n3nccc3NC(=O)c3ccc4c(c3)OCO4)CC2)c1,6.25%
11,O=C1CCCC2=C1C(c1ccccn1)Nc1ccc(C(=O)c3ccccc3)cc1N2 (centres unmarked),10.7%
12,CCOc1ccc(CCNC(=O)c2ccc(=O)[nH]c2)cc1OCC,4.91%
13,CSc1ncc(CN2CCCCC2C(=O)Nc2ccc(Oc3ccccc3)nc2)cn1 (centres unmarked),5%
14,CC(=O)Nc1ccc(S(=O)(=O)NCC2CCCO2)cc1 (centres unmarked),16%
15,Cc1nc(CCNS(=O)(=O)c2cccnc2)cs1,11.5%
16,COc1ccccc1N(C)C(=O)c1cc(S(=O)(=O)N2CCCC2)cn1C,11.6%
17,O=C(N/N=C\c1cc([N+](=O)[O-])ccc1N1CCCC1)c1ccccn1,1.83%
18,CCCCSc1nc2c(cc1C#N)CCC2,5.55%
